# PubChem BioAssay AID1460 (National Center for Advancing Translational Sciences (NCATS), 2008)
# The campaign covered roughly 270,000 compounds. About 5,800 (2.1%) were called active. This list was built around the results that the source calls inconclusive (neither active nor inactive); the mix of calls is not that of the screen. Calls follow the shape of the dose curve; as a rule, active = well fitted inhibition curve with a large enough effect; inconclusive = small, poorly fitted or top-dose-only effect; inactive = flat fitted curve, though single readings scatter. Potencies of inconclusive entries are doubtful fits and often do not repeat.
# Biological target: Microtubule-associated protein tau (Homo sapiens) (UniProt P10636)
# Sequence of UniProt P10636 (P10636 whole entry, looked up): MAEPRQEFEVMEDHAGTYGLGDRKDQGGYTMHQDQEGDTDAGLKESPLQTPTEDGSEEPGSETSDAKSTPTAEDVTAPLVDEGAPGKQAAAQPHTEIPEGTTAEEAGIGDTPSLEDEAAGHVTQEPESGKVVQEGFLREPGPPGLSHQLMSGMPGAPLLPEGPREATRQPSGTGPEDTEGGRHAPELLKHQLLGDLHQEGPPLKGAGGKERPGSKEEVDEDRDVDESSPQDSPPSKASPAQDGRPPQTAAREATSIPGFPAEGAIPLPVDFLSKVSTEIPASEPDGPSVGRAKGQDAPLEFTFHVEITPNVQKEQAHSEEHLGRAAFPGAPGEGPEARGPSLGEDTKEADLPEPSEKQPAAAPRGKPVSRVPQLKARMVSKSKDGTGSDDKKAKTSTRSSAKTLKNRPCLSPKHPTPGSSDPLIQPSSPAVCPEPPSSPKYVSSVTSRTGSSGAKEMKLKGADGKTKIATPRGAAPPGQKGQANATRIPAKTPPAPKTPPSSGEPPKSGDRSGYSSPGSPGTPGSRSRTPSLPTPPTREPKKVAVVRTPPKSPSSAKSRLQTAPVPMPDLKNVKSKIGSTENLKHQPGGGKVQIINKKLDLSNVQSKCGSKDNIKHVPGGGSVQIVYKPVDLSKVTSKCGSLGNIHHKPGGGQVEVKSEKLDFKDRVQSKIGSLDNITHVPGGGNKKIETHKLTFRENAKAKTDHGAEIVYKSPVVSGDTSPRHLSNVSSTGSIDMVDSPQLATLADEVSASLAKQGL
# Experiment: qHTS for Inhibitors of Tau Fibril Formation, Thioflavin T Binding; also: nearly all actives have a fitted effect of over 55% in size
# Settings: recombinant tau K18 P301L (four-repeat tau fragment), heparin-induced fibrillization, ThT fluorescence; series mostly up to 57.4 µM; activity, negative = inhibition: at the top concentration
# Outline: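 K18 P301L tau (15 uM + 0.24 uM Alexa 594-tagged), heparin 20 uM, NaOAc pH 7, 6 h 37 C; ThT 30 uM, 1 h RT, ex 450/em 510 nm.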
# % is scaled to controls: 0 for no effect and ±100 for the full control effect; potency is read from the fitted curve at half-maximal effect; tags tell the direction and shape of the fitted curve.
SMILES,Potency,"activity, negative = inhibition"
COc1cc(C(=O)NCCCNc2ccc([N+](=O)[O-])cc2)cc(OC)c1OC,"inconclusive: 12.6 µM [inhibitor, partial curve]",–
O=C1/C(=C/c2ccc([N+](=O)[O-])cc2)C=C(c2ccccc2)N1c1ccc(O)cc1,active: 5.62 µM,–
Cc1ccc(S(=O)(=O)N(CC(=O)N=Nc2c(O)[nH]c3ccccc23)c2cccc(C)c2)cc1,"inconclusive: 14.1 µM [inhibitor, partial curve]",–
Nc1n[nH]c(N)c1N=Nc1ccc2c(c1)OCO2,active: 14.1 µM,–
CC(C)C(=O)NC(=S)Nc1ccccc1C(F)(F)F,–,inactive: -14%
S=C(c1ccccc1)N1CCCc2ccccc21,"inconclusive: 39.8 µM [inhibitor, single point]",–
NC(=O)C12CCCC(Br)(CCC1)C2,–,inactive: 6.7%
COc1ccc(OC)c(-c2noc(N3CCN(c4ccc(C(C)=O)cc4)CC3)n2)c1,"inconclusive: 8.91 µM [inhibitor, partial curve]",–
CCn1c(CNc2ccc(F)cc2)nnc1SCC(=O)N1CCCc2ccccc21,–,inactive: -4.79%
COC(=O)c1ccc(C(NC(=O)OCc2ccccc2)/C(=C/[C@@H](C)C(=O)NCc2cc(C)n(C)n2)c2cccnc2)cc1 (stereo partly drawn),–,inactive: 5.06%
CCN(CC)C(=S)SCC(=O)c1ccc(Br)cc1,–,inactive: -14.1%
O=C(Nc1ccc(Cl)cc1)c1cc(S(=O)(=O)N2CCOCC2)cs1,–,inactive: -7.95%
CCOC(=O)c1sc(=S)n(-c2ccc3c(c2)OCO3)c1N,–,inactive: -15%
COC(=O)c1ccccc1NC(=O)CSc1nnnn1-c1ccc(C)cc1C,–,inactive: -26.1%
CN1/C(=C\C=C(/C#N)C(=O)Nc2ccc(Cl)cc2)C(C)(C)c2ccccc21,"inconclusive: 1.12 µM [activator, full curve, poor fit]",–
CCOC(=O)c1ccc(Cl)c(NC(=O)c2ccc(-c3ccccc3)cc2)c1,–,inactive: 3.52%
Cc1ccc(Nc2cc(C)nc(N3CCOCC3)n2)cc1,"inconclusive: 28.2 µM [inhibitor, partial curve]",–
COc1ccc(CCNC(=O)c2ccc3nc(Cc4ccccc4)oc3c2)cc1OC,"inconclusive: 12.6 µM [inhibitor, partial curve]",–
C[C@H]1Cc2c(COc3ccccc3)nc3c(c2CO1)CN(C(=O)C1CC1)CC3,–,inactive: -1.54% [at 11.5 µM]
O=C(OCn1ncc(Cl)c(Cl)c1=O)c1ccc(F)cc1,"inconclusive: 22.4 µM [inhibitor, partial curve]",–
CC(O)CNCCCCOc1ccc(OCc2ccccc2)cc1 (stereo not drawn),–,inactive: -6.8%
CCc1nnc(NC(=O)C(=O)NCCOC(=O)c2ccccc2)s1,"inconclusive: 14.1 µM [inhibitor, partial curve]",–
CCCOc1ccc(C(=O)Nc2ccc3nn(-c4ccc(OC)c(Cl)c4)nc3c2)cc1,"inconclusive: 1.41 µM [inhibitor, full curve]",–
COC(=O)c1ccccc1NC(=O)CCCN1C(=O)C(c2ccccc2)Oc2cccnc21 (stereo not drawn),–,inactive: -15.3%

SMILES,Potency,"activity, negative = inhibition"
Cc1ccc(NC(=O)N/C=C/c2ccco2)cc1C,"inconclusive: 15.8 µM [inhibitor, partial curve]",–
O=C(/C=C/c1ccc(Cl)cc1)Nc1nccs1,–,inactive: 5.63%
Cc1ccc(S(=O)(=O)c2cc3ccccc3oc2=Nc2ccc3c(c2)OCCO3)cc1,"inconclusive: 3.16 µM [inhibitor, full curve, poor fit]",–
Cc1cc(C)n2nc(SCC(=O)c3ccccc3)nc2n1,–,inactive: 2.02%
COc1ccc(-c2nc(SC)n(S(=O)(=O)c3ccccc3)n2)cc1,"inconclusive: 39.8 µM [inhibitor, single point]",–
Cc1nc2ccccc2cc1OCc1ccc(F)cc1,"inconclusive: 15.8 µM [inhibitor, partial curve]",–
C[n+]1c2n(c3ccccc31)N=C(c1ccc(-c3ccccc3)cc1)CS2,"inconclusive: 8.91 µM [inhibitor, partial curve]",–
Cc1cc(O)c(C(c2ccc(Cl)cc2)N2CCN(c3ccccc3)CC2)c(=O)n1Cc1ccco1 (stereo not drawn),"inconclusive: 12.6 µM [inhibitor, partial curve]",–
Cc1sc(-c2ccncc2)nc1OC(=O)c1ccc(Cl)cc1,"inconclusive: 17.8 µM [inhibitor, partial curve]",–
CCOc1ccccc1NC(=O)n1ncc2cc(Cl)ccc21,–,inactive: 6.89%
CCc1nnc(NC(=O)CSc2nc3ccc(OC)cc3[nH]2)s1,"inconclusive: 25.1 µM [inhibitor, partial curve, poor fit]",–
CCOC(=O)N1CCN(c2c(NCCc3ccccc3)c(=O)c2=O)CC1,–,inactive: -13.9%
CCC(C)(C)n1nnnc1C(c1cc2ccc(C)cc2[nH]c1=O)N(Cc1cccnc1)Cc1ccco1 (stereo not drawn),"inconclusive: 25.1 µM [inhibitor, single point]",–
CC(=O)Nc1ccn(-c2ccccc2)n1,"inconclusive: 25.1 µM [inhibitor, single point]",–
O=C(CCc1ccccc1)NC(=S)Nc1ccc(S(=O)(=O)N2CCOCC2)cc1,–,inactive: -5.35%
CN(C)CCNC(=O)CCCn1c(=O)c2cccn2c2ccccc21,"inconclusive: 14.1 µM [inhibitor, partial curve]",–
O=C(Nc1nccs1)c1cccc(N2C(=O)c3cccc4c([N+](=O)[O-])ccc(c34)C2=O)c1,"inconclusive: 14.1 µM [inhibitor, partial curve]",–
CN(C)c1ccc(N/C=C/C(=O)c2ccco2)cc1,active: 2 µM,–
CSCCC(NS(=O)(=O)c1ccc2c(c1)oc(=O)n2C)C(=O)NCc1ccc(F)cc1 (stereo not drawn),–,inactive: 1.16%
COc1ccc(-n2cc(C(=O)N(C)c3cc(C)ccc3OC)c3ccccc3c2=O)cc1,"inconclusive: 17.8 µM [inhibitor, partial curve]",–
COc1ccccc1NC(=O)C1=C(C)Nc2nc(SCC(=O)c3ccc(C)cc3)nn2C1c1ccccc1C (stereo not drawn),–,inactive: 14.7%
CC1(C)CC2CC(C)(CN2/C=N/c2sc3c(c2C#N)CC(C)(C)NC3(C)C)C1 (stereo not drawn),–,inactive: -5.41%
Cc1ccc(/C=N/Nc2nc(C(C)(C)C)cs2)o1,"inconclusive: 15.8 µM [inhibitor, partial curve]",–
CC(=O)c1cccc2c(O)c(C3=Nc4ccccc4C3=O)[nH]c12,active: 3.55 µM,–
